In the supplement of paper PMC7826260:
The other results are listed elsewhere or left out. The data describe in vitro nicking of single-stranded DNA by Rep domains at 3 µM enzyme and 37 °C for 1 h; the strands have 90 letters, of which the middle is given. Uncut reads are compared with the no-enzyme pool on a log2 scale; strong cutting gives strongly negative numbers. There is no active / inactive call. Shares of all reads are compared; values above 0 arise when much of the pool is cut.

Tested on: T1, Rep nickase domain of maize striate mosaic virus
T1 sequence (residues 1-117 of Rep, tag left off): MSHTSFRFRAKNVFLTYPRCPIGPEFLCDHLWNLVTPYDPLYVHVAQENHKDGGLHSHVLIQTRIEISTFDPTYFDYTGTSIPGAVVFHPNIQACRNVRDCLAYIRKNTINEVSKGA
Assay: uncleaved DNA left, log2 of reads against the no-enzyme library (log2 ratio); higher = less cleavage (more negative = more Rep cleavage of the k-mer); sequences stand for … in CTCGTCCG…ACCGGAGA
Experimental: (§1)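 A pool of 90-nt single-stranded DNAs with seven random bases just before the constant AC of the nick site (name = the seven bases) was cut by 3 µM recombinant His6-SUMO-tagged Rep nickase domain (300 nM DNA, 50 mM HEPES pH 8.0, 50 mM NaCl, 1 mM MnCl2, 1 h, 37 °C, three replicates). Uncut DNA was amplified and sequenced.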

Sequence	uncleaved DNA left (log2)
AACGTAC	-0.761
ACAACGG	-0.615
ACGAAAC	-0.663
TGCCTTA	-0.139
GTAATGG	0.735
GCTAACG	-0.965
AGGTGTG	-0.947
ACCCTCC	0.598
AGGCGGC	-0.236
GATTTGT	-0.00687
CTGATAA	-0.356
CCCCCAA	-0.856
GGTATGG	0.941
CTTACGC	-0.808
ACGCTTT	-0.649
ATCGCCT	-0.758
CCTGCGG	1.57
CAGCAGT	-0.912
CTTCGGC	-0.546
CTTTCTC	-0.556

Tested on: T2, Rep nickase domain of porcine circovirus 2
T2 sequence (residues 2-116 of Rep, tag left off): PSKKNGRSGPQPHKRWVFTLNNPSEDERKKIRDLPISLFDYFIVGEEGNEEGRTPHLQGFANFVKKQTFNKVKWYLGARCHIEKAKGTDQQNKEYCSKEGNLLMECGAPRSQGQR
Assay: as above
Experimental: as §1

Sequence	uncleaved DNA left (log2)
GGATCCC	-0.0422
ATTCCCT	-3.31
TGGATTC	0.16
TAAAGGT	0.0402
AATTGGA	-0.606
TACGGTC	-0.0462
GTCTACC	-0.0389
TCCTACT	-3.46
TCGCACC	-0.272
TAACAGC	0.0898
CACCTAT	-0.623
AAAGCCT	-0.227
CGTCGTG	0.202
AGTGCAC	0.0644
CAAGAAC	0.148
CGCCAGC	0.0688
CCGCTGC	-0.0365
CAGGTAT	0.192
CGTCAGT	-0.226
ACTCGAC	0.159

Sequence	uncleaved DNA left (log2)
AACGTAC	0.0477
ACAACGG	0.181
ACGAAAC	0.177
TGCCTTA	-0.169
GTAATGG	0.0845
GCTAACG	0.132
AGGTGTG	0.109
ACCCTCC	0.189
AGGCGGC	0.041
GATTTGT	-2.9
CTGATAA	-0.0434
CCCCCAA	-0.403
GGTATGG	0.146
CTTACGC	0.0557
ACGCTTT	-0.188
ATCGCCT	-0.112
CCTGCGG	0.21
CAGCAGT	-2.59
CTTCGGC	0.23
CTTTCTC	0.0651

Tested on: T3, Rep nickase domain of tomato golden mosaic virus
T3 sequence (residues 1-124 of Rep, tag left off): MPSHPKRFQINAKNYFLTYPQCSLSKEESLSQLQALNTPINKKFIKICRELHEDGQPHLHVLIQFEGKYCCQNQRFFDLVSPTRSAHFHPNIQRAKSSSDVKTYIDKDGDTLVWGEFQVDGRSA
Assay: as above
Experimental: as §1

Sequence	uncleaved DNA left (log2)
GGATCCC	0.00627
ATTCCCT	-0.228
TGGATTC	-0.136
TAAAGGT	-0.139
AATTGGA	0.0625
TACGGTC	0.0111
GTCTACC	0.0374
TCCTACT	-0.104
TCGCACC	-0.0707
TAACAGC	-0.021
CACCTAT	0.0536
AAAGCCT	-0.125
CGTCGTG	0.103
AGTGCAC	0.0619
CAAGAAC	0.0688
CGCCAGC	-0.0296
CCGCTGC	-0.191
CAGGTAT	0.131
CGTCAGT	-0.0863
ACTCGAC	0.151

Sequence	uncleaved DNA left (log2)
AACGTAC	-0.0178
ACAACGG	0.107
ACGAAAC	-0.0195
TGCCTTA	-0.00168
GTAATGG	0.0428
GCTAACG	-0.0555
AGGTGTG	-0.000581
ACCCTCC	0.167
AGGCGGC	-0.0685
GATTTGT	0.102
CTGATAA	0.176
CCCCCAA	0.00152
GGTATGG	0.131
CTTACGC	-0.087
ACGCTTT	0.0647
ATCGCCT	-0.125
CCTGCGG	0.154
CAGCAGT	0.129
CTTCGGC	0.096
CTTTCTC	-0.0181
